Source: the supplement of paper PMC7125110
± gives the standard error. Variants at the floor of the assay are shown more often than the library holds them.

B1: glmS ribozyme (parent)
chain: AUAAAAGCGCCAGAACUACAGAAAUGUAGUUGACGAGGAGGAGGUUUAUCGAAUUUUCGGCGGAUGCCUCCAAA

Assays:
Details in all cases: with glucosamine-6-phosphate
glucosamine-6-phosphate [1] = variants of: B1; assay: kcat; higher = faster cleavage; RNA array
Summary of the method: (§1)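 The measurements used barcoded ribozyme variants on sequenced MiSeq chips, transcribed in situ by E. coli RNA polymerase and tracked at 37 °C with a hybridised Cy3 probe. Glucosamine-6-phosphate, 40 μM to 10 mM in HEPES/KCl/Mg(OAc)2 buffer, was flowed in while tiles were imaged over ~14 h. Baseline-normalised signals, also normalised to non-cleaving reference variants, gave per-tile medians that were fit to one- or two-exponential decays for kobs. kcat and KM resulted from weighted Michaelis–Menten fits across concentrations.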

glucosamine-6-phosphate [2] = variants of: B1; assay: self-cleavage kobs at 40 uM GlcN6P; higher = faster cleavage; RNA array
Summary of the method: as §1

glucosamine-6-phosphate [3] = variants of: B1; assay: self-cleavage kobs at 640 uM GlcN6P; higher = faster cleavage; RNA array
Summary of the method: as §1

glucosamine-6-phosphate [4] = variants of: B1; assay: self-cleavage kobs at 10000 uM GlcN6P; higher = faster cleavage; RNA array
Summary of the method: as §1

glucosamine-6-phosphate [5] = variants of: B1; assay: self-cleavage kobs at 2500 uM GlcN6P; higher = faster cleavage; RNA array
Summary of the method: as §1

glucosamine-6-phosphate [6] = variants of: B1; assay: self-cleavage kobs at 160 uM GlcN6P; higher = faster cleavage; RNA array
Summary of the method: as §1

| Variant | kcat (glucosamine-6-phosphate [1]) | self-cleavage kobs at 40 uM GlcN6P (glucosamine-6-phosphate [2]) | self-cleavage kobs at 640 uM GlcN6P (glucosamine-6-phosphate [3]) | self-cleavage kobs at 10000 uM GlcN6P (glucosamine-6-phosphate [4]) | self-cleavage kobs at 2500 uM GlcN6P (glucosamine-6-phosphate [5]) | self-cleavage kobs at 160 uM GlcN6P (glucosamine-6-phosphate [6]) |
| --- | --- | --- | --- | --- | --- | --- |
| A14C G51A | < 1e-05 s⁻¹ | < 1e-05 s⁻¹ |  |  |  |  |
| U65C C68G | < 1e-05 s⁻¹ | < 1e-05 s⁻¹ | < 1e-05 s⁻¹ | < 1e-05 s⁻¹ |  |  |
| C8U A14U |  | < 1e-05 s⁻¹ | < 1e-05 s⁻¹ | < 1e-05 s⁻¹ | < 1e-05 s⁻¹ |  |
| A6U G51C |  | < 1e-05 s⁻¹ | < 1e-05 s⁻¹ | < 1e-05 s⁻¹ | < 1e-05 s⁻¹ | < 1e-05 s⁻¹ |
| C8U A14U G59C |  | < 1e-05 s⁻¹ |  | < 1e-05 s⁻¹ |  |  |
| A6U G29U G38A C58A |  | < 1e-05 s⁻¹ |  |  |  |  |
| A6U C11U G29U A42U A48U A52C |  | < 1e-05 s⁻¹ |  | < 1e-05 s⁻¹ |  |  |
| G7U U30C U46A C68A |  | < 1e-05 s⁻¹ |  |  |  |  |
| A6G A15U G32U C34G G35A C50U C71A |  | < 1e-05 s⁻¹ |  |  |  |  |
| A33C G60C C67U C70G | < 1e-05 s⁻¹ | < 1e-05 s⁻¹ |  |  |  |  |
| A39G U49C | < 1e-05 s⁻¹ | < 1e-05 s⁻¹ |  |  |  |  |
| C8U C11U |  | < 1e-05 s⁻¹ | < 1e-05 s⁻¹ | < 1e-05 s⁻¹ | < 1e-05 s⁻¹ | < 1e-05 s⁻¹ |
| C8A A12C C50U |  | < 1e-05 s⁻¹ | < 1e-05 s⁻¹ | < 1e-05 s⁻¹ |  |  |
| A6G A42U A64G |  | < 1e-05 s⁻¹ | < 1e-05 s⁻¹ | < 1e-05 s⁻¹ | < 1e-05 s⁻¹ |  |
| C8A A39G |  | < 1e-05 s⁻¹ |  | < 1e-05 s⁻¹ |  | < 1e-05 s⁻¹ |
| A6G C10A C16U C68U | < 1e-05 s⁻¹ |  |  |  |  |  |
| A12U G38U | < 1e-05 s⁻¹ |  |  |  |  |  |
| G9A A15C |  | < 1e-05 s⁻¹ |  |  |  |  |
| C16G G51U | < 1e-05 s⁻¹ | < 1e-05 s⁻¹ | < 1e-05 s⁻¹ | < 1e-05 s⁻¹ |  | < 1e-05 s⁻¹ |
| C8U A52U |  | < 1e-05 s⁻¹ | < 1e-05 s⁻¹ | < 1e-05 s⁻¹ | < 1e-05 s⁻¹ | < 1e-05 s⁻¹ |
| A33U U49A | < 1e-05 s⁻¹ | < 1e-05 s⁻¹ |  | < 1e-05 s⁻¹ | < 1e-05 s⁻¹ |  |
| G7C U46G C71U |  | < 1e-05 s⁻¹ |  |  |  |  |
| C8G G44A U47C |  | < 1e-05 s⁻¹ |  | < 1e-05 s⁻¹ |  |  |
| G59U G63A | < 1e-05 s⁻¹ |  |  |  | < 1e-05 s⁻¹ |  |
| G7C G38C G41A G66U | < 1e-05 s⁻¹ |  |  |  |  |  |

| Variant | kcat (glucosamine-6-phosphate [1]) | self-cleavage kobs at 40 uM GlcN6P (glucosamine-6-phosphate [2]) | self-cleavage kobs at 640 uM GlcN6P (glucosamine-6-phosphate [3]) | self-cleavage kobs at 10000 uM GlcN6P (glucosamine-6-phosphate [4]) | self-cleavage kobs at 2500 uM GlcN6P (glucosamine-6-phosphate [5]) | self-cleavage kobs at 160 uM GlcN6P (glucosamine-6-phosphate [6]) |
| --- | --- | --- | --- | --- | --- | --- |
| G7C G29C A64C |  | < 1e-05 s⁻¹ | < 1e-05 s⁻¹ |  | < 1e-05 s⁻¹ | < 1e-05 s⁻¹ |
| G43U U46C | < 1e-05 s⁻¹ |  | < 1e-05 s⁻¹ | < 1e-05 s⁻¹ |  | < 1e-05 s⁻¹ |
| G7C G44C A64U |  | < 1e-05 s⁻¹ |  | < 1e-05 s⁻¹ |  |  |
| A6G A14C U54G |  | < 1e-05 s⁻¹ |  |  |  |  |
| A53C G62C | < 1e-05 s⁻¹ |  |  |  |  | < 1e-05 s⁻¹ |
| G9A G37C U56G G63U |  | < 1e-05 s⁻¹ |  |  |  |  |
| A6U G37U U55A G62A |  | < 1e-05 s⁻¹ |  |  |  |  |
| A6C G37C A39G G40U G41U |  | < 1e-05 s⁻¹ | < 1e-05 s⁻¹ |  | < 1e-05 s⁻¹ | < 1e-05 s⁻¹ |
| G7U C8G U47G C58U C61G U69G |  | 0.000436 ± 0.00012 s⁻¹ |  | 0.000464 ± 0.00012 s⁻¹ |  |  |
| G7A G44A |  | < 1e-05 s⁻¹ | < 1e-05 s⁻¹ | < 1e-05 s⁻¹ |  | < 1e-05 s⁻¹ |
| G9C G32A G43U |  | < 1e-05 s⁻¹ |  | < 1e-05 s⁻¹ |  |  |
| G51U U56A | < 1e-05 s⁻¹ | < 1e-05 s⁻¹ | < 1e-05 s⁻¹ |  |  | < 1e-05 s⁻¹ |
| C8G C10U U31A |  | < 1e-05 s⁻¹ |  | < 1e-05 s⁻¹ |  |  |
| G7U C8A G41C U49G U55A G60U C70U |  | < 1e-05 s⁻¹ |  |  |  |  |
| G51U U55A | < 1e-05 s⁻¹ |  |  |  |  | < 1e-05 s⁻¹ |
| A6G C8U G29C G44U U55G |  | < 1e-05 s⁻¹ |  | < 1e-05 s⁻¹ |  |  |
| G38U C71U | < 1e-05 s⁻¹ |  |  |  |  |  |
| G51A U56G | < 1e-05 s⁻¹ |  | < 1e-05 s⁻¹ |  |  |  |
| A6G G59A |  | < 1e-05 s⁻¹ | < 1e-05 s⁻¹ | < 1e-05 s⁻¹ | < 1e-05 s⁻¹ |  |
| C8G A12G | < 1e-05 s⁻¹ | < 1e-05 s⁻¹ |  | < 1e-05 s⁻¹ |  |  |
| A6G A48G |  | < 1e-05 s⁻¹ | < 1e-05 s⁻¹ | < 1e-05 s⁻¹ | < 1e-05 s⁻¹ | < 1e-05 s⁻¹ |
| A6G G29C A42G A48G U49G |  | < 1e-05 s⁻¹ |  | < 1e-05 s⁻¹ |  |  |
| C8G G13C U31A A39G U57A |  | < 1e-05 s⁻¹ |  | < 1e-05 s⁻¹ |  |  |
| A6G C11G |  | < 1e-05 s⁻¹ | < 1e-05 s⁻¹ | < 1e-05 s⁻¹ | < 1e-05 s⁻¹ | < 1e-05 s⁻¹ |
